# Assay results from PubChem BioAssay (NCATS).
# Inconclusive results, whose numbers are uncertain, are shown with a selection of clear calls. For part of these data: Potencies of inconclusive entries are left out as doubtful fits. Active and inactive are the calls of the source. Calls follow the shape of the dose curve; as a rule, active = well fitted curve in the direction sought with a large enough effect; inconclusive = small, poorly fitted or top-dose-only effect, or another doubt; inactive = no such curve, though single readings can be large; an effect the other way counts as inactive or inconclusive.
# Columns and labels:
# [1] = target: Rap guanine nucleotide exchange factor 3 (Homo sapiens) (UniProt O95398); test: Confirmatory qHTS for antagonist of cAMP-regulated guanine nucleotide exchange factor 3 (EPAC1) (AID 1645880); conditions: EPAC1 Rap1B-BODIPY-GDP exchange, fluorescence; activity, negative = inhibition: at 115 µM (top of the series); also: nearly all actives have a fitted effect of over 55% in size;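 as to activity, negative = inhibition: plate controls were DMSO only for no effect and full effect of the ATA control for full effect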
# Outline: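 Released BODIPY-GDP fluoresces less than Rap1-bound BODIPY-GDP; the signal is followed at 480/540 nm at 5-min intervals over 30 min, after 5 min at room temperature. Reactions contain 100 nM EPAC1, 250 nM RAP1B-BODIPY-GDP and 50 uM GDP; results are normalized to ATA and DMSO.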
# [2] = target: Rap guanine nucleotide exchange factor 3 (Homo sapiens) (UniProt O95398); test: Confirmatory qHTS for agonist of cAMP-regulated guanine nucleotide exchange factor 3 (EPAC1) (AID 1645881); conditions: EPAC1 Rap1B BODIPY-GDP exchange fluorescence; activation: at 154 µM (top of the series), 100% = cAMP control response; also: nearly all actives have a fitted effect of over 75% in size;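 as to activation: EPAC1 catalysed release of BODIPY-GDP from Rap1B seen as fluorescence loss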
# [3] = target: Rap guanine nucleotide exchange factor 3 (Homo sapiens) (UniProt O95398); test: Counterscreen qHTS for agonist of cAMP-regulated guanine nucleotide exchange factor 3 (EPAC1) (AID 1645889); conditions: EPAC1 Rap1B-BODIPY-GDP exchange, fluorescence; activation: at 154 µM (top of the series) unless noted; also: nearly all actives have a fitted effect of over 40% in size; as to activation: % of control where 0% means no effect
# Outline: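 Measured: fluorescence of BODIPY-GDP bound to Rap1B, which falls as exchange proceeds. Conditions include 50 uM competing GDP, 5 and 30 min reads, and a later cAMP challenge for antagonist detection.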
# [4] = qHTS Assay for Inhibitors of Fructose-1,6-bisphosphate Aldolase from Giardia Lamblia: Mammalian cellular toxicity (AID 2786);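 also: compound exposure lasted 48 h before reading; nearly all actives have a fitted effect of over 60% in size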
# Outline: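 Chinese hamster ovary cells (250/well, DMEM with 10% FBS and penicillin/streptomycin) were exposed to compounds for 48 h at 37 °C, 5% CO2. Viability was taken as cellular ATP content, read with ATPlite reagent after 20 min.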
# [5] = target: Bifunctional 3'-5' exonuclease/ATP-dependent helicase WRN (Homo sapiens) (UniProt Q14191); test: qHTS for Inhibitors of WRN Helicase: Confirmatory Assay for Cherry-picked Compounds. (AID 720497); also: nearly all actives have a fitted effect of over 65% in size
# Outline: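 WRN (20 nM) was preincubated 15 min at RT with compound, then started with 100 nM forked duplex oligonucleotide and 2 mM ATP. Unwinding was read kinetically by red fluorescence (ex 525/em 598 nm), normalized to enzyme-free and uninhibited controls.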
# [6] = qHTS for Inhibitors of WRN Helicase: Thiazole Orange DNA Binding Counterscreen (AID 720499);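 also: drop in dye fluorescence marks compound binding to DNA; nearly all actives have a fitted effect of over 60% in size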
# Outline: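 Counterscreen to remove nonspecific DNA binders from WRN helicase hits. Compounds were incubated 15 min at room temperature with 50 nM DNA and 100 nM ThO, then fluorescence was recorded (480 nm excitation, 530 nm emission).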
# Potency is read from the fitted curve at half-maximal effect; tags tell the direction and shape of the fitted curve.
# UniProt O95398, sequence (O95398 whole entry, looked up): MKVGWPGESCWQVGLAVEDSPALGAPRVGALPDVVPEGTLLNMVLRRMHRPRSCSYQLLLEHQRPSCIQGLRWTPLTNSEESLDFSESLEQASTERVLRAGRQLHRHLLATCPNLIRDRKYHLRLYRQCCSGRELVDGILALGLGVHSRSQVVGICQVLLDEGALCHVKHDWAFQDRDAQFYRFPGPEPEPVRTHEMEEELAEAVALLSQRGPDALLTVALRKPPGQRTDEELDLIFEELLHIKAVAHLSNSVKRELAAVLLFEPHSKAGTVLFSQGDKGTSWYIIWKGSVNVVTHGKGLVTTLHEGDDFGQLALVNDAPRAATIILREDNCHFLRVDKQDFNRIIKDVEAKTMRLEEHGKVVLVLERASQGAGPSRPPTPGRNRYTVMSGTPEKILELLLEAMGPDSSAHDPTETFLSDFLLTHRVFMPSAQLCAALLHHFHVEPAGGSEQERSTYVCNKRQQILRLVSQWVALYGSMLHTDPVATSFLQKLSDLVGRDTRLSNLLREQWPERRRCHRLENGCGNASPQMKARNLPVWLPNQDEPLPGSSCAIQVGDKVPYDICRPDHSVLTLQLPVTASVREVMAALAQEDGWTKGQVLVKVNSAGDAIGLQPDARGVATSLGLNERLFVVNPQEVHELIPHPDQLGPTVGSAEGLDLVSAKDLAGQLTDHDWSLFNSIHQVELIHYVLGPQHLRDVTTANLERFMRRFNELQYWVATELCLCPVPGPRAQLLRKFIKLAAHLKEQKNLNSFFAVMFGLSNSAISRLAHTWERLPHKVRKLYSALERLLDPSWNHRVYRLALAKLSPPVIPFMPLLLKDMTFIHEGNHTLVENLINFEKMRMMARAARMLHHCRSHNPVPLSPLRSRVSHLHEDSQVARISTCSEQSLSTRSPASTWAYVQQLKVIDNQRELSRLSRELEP
# UniProt Q14191, sequence (Q14191 whole entry, looked up): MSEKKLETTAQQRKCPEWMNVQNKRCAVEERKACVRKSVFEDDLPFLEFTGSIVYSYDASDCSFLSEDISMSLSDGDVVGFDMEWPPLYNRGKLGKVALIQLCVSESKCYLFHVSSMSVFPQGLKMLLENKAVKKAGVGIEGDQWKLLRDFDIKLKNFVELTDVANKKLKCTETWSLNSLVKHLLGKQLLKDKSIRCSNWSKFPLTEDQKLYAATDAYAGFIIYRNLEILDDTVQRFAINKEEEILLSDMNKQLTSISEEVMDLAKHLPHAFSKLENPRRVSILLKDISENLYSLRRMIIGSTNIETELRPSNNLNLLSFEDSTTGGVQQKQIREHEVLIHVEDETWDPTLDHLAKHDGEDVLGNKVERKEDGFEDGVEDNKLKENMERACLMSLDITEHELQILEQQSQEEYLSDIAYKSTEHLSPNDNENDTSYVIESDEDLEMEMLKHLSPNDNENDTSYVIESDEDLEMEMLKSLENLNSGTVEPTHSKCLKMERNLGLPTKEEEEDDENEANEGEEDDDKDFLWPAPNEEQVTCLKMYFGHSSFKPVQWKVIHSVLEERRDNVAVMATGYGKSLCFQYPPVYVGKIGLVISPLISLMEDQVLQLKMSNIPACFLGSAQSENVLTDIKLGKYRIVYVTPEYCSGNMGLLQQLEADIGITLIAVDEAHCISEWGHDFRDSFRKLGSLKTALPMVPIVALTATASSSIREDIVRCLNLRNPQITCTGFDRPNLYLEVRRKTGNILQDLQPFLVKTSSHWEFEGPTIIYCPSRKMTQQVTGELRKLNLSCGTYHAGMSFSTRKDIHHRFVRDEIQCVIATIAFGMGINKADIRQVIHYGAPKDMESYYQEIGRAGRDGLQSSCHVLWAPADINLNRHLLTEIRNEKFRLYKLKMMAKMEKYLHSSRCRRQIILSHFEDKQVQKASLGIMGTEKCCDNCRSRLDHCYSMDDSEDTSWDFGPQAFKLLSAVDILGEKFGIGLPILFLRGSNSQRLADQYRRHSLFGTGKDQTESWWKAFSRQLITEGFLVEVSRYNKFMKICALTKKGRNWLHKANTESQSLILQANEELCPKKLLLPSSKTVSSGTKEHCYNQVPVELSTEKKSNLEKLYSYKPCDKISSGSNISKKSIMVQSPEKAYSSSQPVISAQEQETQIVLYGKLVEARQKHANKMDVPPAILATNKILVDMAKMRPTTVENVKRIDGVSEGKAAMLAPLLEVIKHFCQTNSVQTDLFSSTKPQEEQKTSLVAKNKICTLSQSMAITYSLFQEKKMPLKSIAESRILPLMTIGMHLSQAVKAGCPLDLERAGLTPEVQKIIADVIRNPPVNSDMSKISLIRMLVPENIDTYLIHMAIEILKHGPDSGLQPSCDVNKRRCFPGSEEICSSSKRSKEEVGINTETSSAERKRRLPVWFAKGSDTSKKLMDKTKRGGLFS
structure (smiles),measurement,setting,value
Cc1ccc(C(C)C)c(OCCCn2c(=O)oc3ccc(C)cc32)c1,Potency,[1],"inconclusive [inhibitor, single point]"
same,Potency,[2],inactive
same,Potency,[3],inactive
COC(=O)c1c(NC(=O)c2ccc(S(=O)(=O)N(C)C3CCCCC3)cc2)sc2c1CCN(C)C2,Potency,[1],inactive
same,Potency,[2],"inconclusive [activator, partial curve]"
same,Potency,[3],active: 89.1 µM
O=C(O)COc1ccccc1/C=N/Nc1ccc(S(=O)(=O)Nc2ccc(Cl)cc2)cc1[N+](=O)[O-],Potency,[1],"inconclusive [inhibitor, full curve]"
same,Potency,[2],"inconclusive [activator, partial curve, poor fit]"
same,activation,[3],inactive: 17.2% [at 30.8 µM]
COc1ccc(/C=N/n2cnc3c([nH]c4ccc(F)cc43)c2=O)cc1CN1CCCC1,Potency,[1],"inconclusive [inhibitor, partial curve]"
same,Potency,[2],"inconclusive [activator, single point]"
same,Potency,[3],inactive
Cc1c(CCC(=O)O)c(=O)oc2cc(OCc3ccccc3Br)ccc12,Potency,[1],"inconclusive [inhibitor, full curve]"
same,Potency,[2],"inconclusive [activator, partial curve]"
same,Potency,[3],inactive
Cc1ccc(N=Cc2sc(O)c3ccccc23)c(C)c1,Potency,[1],inactive
same,Potency,[2],"inconclusive [activator, partial curve, poor fit]"
same,activation,[3],inactive: 10.3% [at 30.8 µM]
C/C(=N\NC(=O)c1cc(O)ccc1O)c1cccc(NC(=O)c2ccc(Cl)cc2)c1,Potency,[1],active: 75.7 µM
same,Potency,[2],inactive
same,Potency,[3],inactive
O=C(O)c1ccccc1NS(=O)(=O)c1ccc(NN=Cc2cccc(Cl)c2)c([N+](=O)[O-])c1,Potency,[1],active: 75.7 µM
same,Potency,[2],"inconclusive [activator, partial curve, poor fit]"
same,Potency,[3],"inconclusive [activator, single point]"
COC(=O)c1cc(C(=O)OC)n(Cc2ccc(C)cc2)c1C,Potency,[1],"inconclusive [inhibitor, partial curve]"
same,Potency,[2],"inconclusive [activator, partial curve, poor fit]"
same,Potency,[3],"inconclusive [activator, partial curve, poor fit]"
O=C(/C=C/c1ccc(-c2ccccc2[N+](=O)[O-])o1)c1ccco1,Potency,[1],"inconclusive [inhibitor, partial curve]"
same,Potency,[2],inactive
same,Potency,[3],"inconclusive [activator, single point]"
CCC(=O)N(CCC(c1ccccc1)c1ccco1)Cc1cccs1 (stereo not drawn),Potency,[1],"inconclusive [inhibitor, full curve, poor fit]"
same,Potency,[2],"inconclusive [activator, partial curve, poor fit]"
same,Potency,[3],"inconclusive [activator, partial curve, poor fit]"
CN(C)c1ccc(/C=C(\C#N)C(=O)c2ccccc2)cc1,Potency,[1],inactive
same,Potency,[2],"inconclusive [activator, partial curve, poor fit]"
same,Potency,[3],"inconclusive [activator, partial curve, poor fit]"
COc1cn(-c2ccccc2)nc1C(=O)Nc1ccc(C)cc1Cl,Potency,[1],"inconclusive [inhibitor, partial curve]"
same,Potency,[2],inactive
same,activation,[3],inconclusive: 31.9% [activator]
O=C(Nc1cccc(C(F)(F)F)c1)C1Cc2c(-c3ccccc3)ccnc2O1 (stereo not drawn),Potency,[1],"inconclusive [inhibitor, partial curve]"
same,Potency,[2],"inconclusive [activator, single point]"
same,Potency,[3],"inconclusive [activator, partial curve, poor fit]"
COc1cc2cc(Oc3ccc4ccc(=O)oc4c3)c(=O)oc2cc1O,Potency,[1],"inconclusive [inhibitor, partial curve]"
same,Potency,[2],"inconclusive [activator, partial curve, poor fit]"
same,Potency,[3],"inconclusive [activator, full curve, poor fit]"
O=C(O)c1ccc(N/N=C/c2ccc(-c3ccc(Cl)cc3Cl)o2)cc1,Potency,[1],"inconclusive [inhibitor, partial curve]"
same,Potency,[2],"inconclusive [activator, single point]"
same,activation,[3],inconclusive: 24.8% [activator]
Cc1csc(NC(=O)CSCC(=O)O)c1-c1nc2ccccc2s1,Potency,[1],"inconclusive [inhibitor, partial curve]"
same,Potency,[2],inactive
same,Potency,[3],inactive
Cc1cc2ccccn2c1C(=O)c1ccccc1F,Potency,[1],inactive
same,Potency,[2],inactive
same,activation,[3],inactive: 21.5% [at 30.8 µM]
CC1(C)CC2CC(C)(CN2C(=O)c2cc(-c3ccccc3O)on2)C1 (stereo not drawn),Potency,[1],"inconclusive [inhibitor, partial curve, poor fit]"
same,Potency,[2],"inconclusive [activator, single point]"
same,activation,[3],inactive: 17.1% [at 30.8 µM]
COc1ccc(Cl)cc1NC(=O)CN(C)C(C)C(=O)NC(=O)NC1CCCCC1 (stereo not drawn),Potency,[1],inactive
same,Potency,[2],"inconclusive [activator, partial curve, poor fit]"
same,Potency,[3],"inconclusive [activator, partial curve]"
COc1ccc(-c2nc3ccccc3nc2-c2ccccc2)cc1OC,Potency,[1],"inconclusive [inhibitor, partial curve, poor fit]"
same,Potency,[2],"inconclusive [activator, partial curve, poor fit]"
same,Potency,[3],"inconclusive [activator, full curve, poor fit]"
COc1ccc(NS(=O)(=O)c2ccc3[nH]c4c(c3c2)CCCCCC4)cc1,Potency,[1],inactive
same,Potency,[2],inactive
same,Potency,[3],"inconclusive [activator, partial curve]"
Cc1nn(-c2c(Cl)cc(Cl)cc2Cl)c(=O)c2ccccc12,Potency,[1],inactive
same,Potency,[2],inactive
same,Potency,[3],"inconclusive [activator, full curve, poor fit]"
CC(C)(C)C(C(=O)n1cccc1C#N)c1ccccc1 (stereo not drawn),Potency,[1],"inconclusive [inhibitor, partial curve, poor fit]"
same,Potency,[2],inactive
same,Potency,[3],"inconclusive [activator, full curve, poor fit]"
CC(CNC(=O)c1sc2ncccc2c1-n1cccc1)c1ccccc1 (stereo not drawn),Potency,[1],"inconclusive [inhibitor, single point]"
same,Potency,[2],inactive
same,activation,[3],inconclusive: 66.1% [activator]
Oc1ccc(NCc2cccc(OCc3ccc(F)cc3)c2)cc1,Potency,[1],"inconclusive [inhibitor, partial curve]"
same,Potency,[2],"inconclusive [activator, full curve, poor fit]"
same,Potency,[3],"inconclusive [activator, partial curve, poor fit]"
O=C(COc1ccc(Cl)cc1Cl)NNC(=S)NCc1ccco1,Potency,[1],"inconclusive [inhibitor, full curve, poor fit]"
same,Potency,[2],"inconclusive [activator, partial curve, poor fit]"
same,activation,[3],inconclusive: 50.5% [activator]
CCc1ccc(N=C2NC(=O)/C(=C/c3ccc(OCC(=O)O)c(OC)c3)S2)cc1,Potency,[1],"inconclusive [inhibitor, partial curve]"
same,Potency,[2],"inconclusive [activator, partial curve, poor fit]"
same,Potency,[3],"inconclusive [activator, partial curve, poor fit]"
Cc1cc(=O)n(Cc2ccccc2)c2c1c(C)nn2C,Potency,[1],"inconclusive [inhibitor, single point]"
same,Potency,[2],"inconclusive [activator, partial curve, poor fit]"
same,activation,[3],inconclusive: 110% [activator]
COc1ccc(CN(Cc2ccco2)C(=O)c2ccccc2F)cc1,Potency,[1],"inconclusive [inhibitor, partial curve, poor fit]"
same,Potency,[2],"inconclusive [activator, partial curve, poor fit]"
same,Potency,[3],"inconclusive [activator, full curve, poor fit]"
N#C/C(=C/c1ccc(N2CCOCC2)o1)C(=O)Nc1ccccc1,Potency,[1],inactive
same,Potency,[2],active: 112 µM
same,activation,[3],inconclusive: 285% [activator]
COc1ccc(N/C=C2\CCc3ccccc3C2=O)cc1,Potency,[1],inactive
same,Potency,[2],active: 89.1 µM
same,Potency,[3],"inconclusive [activator, full curve, poor fit]"
COc1ccc(-n2nnnc2SCC(=O)c2ccc(O)c(O)c2)cc1,Potency,[4],"inconclusive [inhibitor, partial curve, poor fit]"
same,Potency,[5],active: 6.81 µM
same,Potency,[6],"inconclusive [inhibitor, partial curve]"
same,Potency,[1],active: 9.53 µM
same,Potency,[2],inactive
same,Potency,[3],"inconclusive [activator, full curve, poor fit]"
Cc1ccc(C(=O)N(Cc2ccco2)Cc2sccc2C)cc1,Potency,[1],"inconclusive [inhibitor, partial curve, poor fit]"
same,Potency,[2],"inconclusive [activator, partial curve, poor fit]"
same,Potency,[3],"inconclusive [activator, full curve, poor fit]"
CCCOc1ccc(/C(O)=C2/C(=O)C(=O)N(c3ccccn3)C2c2ccc(OC)cc2)cc1C (stereo not drawn),Potency,[1],active: 33.8 µM
same,Potency,[2],inactive
same,Potency,[3],inactive
